Source: patent US20050118683A1 (published 2005)

Molecular target: T1, hIL-13Rα2.Fc fusion polypeptide (soluble human IL-13Rα2 extracellular domain fused to hinge-CH2-CH3 of human … (human))
T1 construct: The dimer is described as the main active form; also called sIL-13Rα2.Fc; human s13Rα2.Fc
Experiment: co-expressed complex held on a Protein A column, MgCl2 wash, SEC-HPLC of dissociated IL-13
Procedure: The ability of hIL-13Rα2.Fc to dissociate from a coexpressed wild-type, R127D or R127P IL-13 ligand was next examined. Dissociation was assessed by determining the ability of MgCl2 to dissociate IL-13 from a IL-13-hIL-13Rα2.Fc complex. Conditioned media from cells coexpressing hIL-13Rα2.Fc fusion polypeptide with wild-type or mutant hIL-13 was purified on a Protein A column in the presence of increasing concentrations of MgCl₂. The amount of dissociated IL-13 at each MgCl₂ concentration was then measured.

- binding result: binds
B1: human IL-13 (wild-type) (ligand)
chain: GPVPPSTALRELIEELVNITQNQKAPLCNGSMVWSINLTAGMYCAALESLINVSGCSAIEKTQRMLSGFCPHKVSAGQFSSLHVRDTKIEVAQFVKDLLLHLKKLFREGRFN
notes: also called hIL-13; wild-type human IL-13
